Measurements taken from US20240190939A1 (SHATTUCK LABS, published 2024).

How the values were obtained:
CD47-His = molecular target: T1, CD47-His; experiment: ELISA: hCD47 His capture, IgG HRP detection
T1 construct: ELISA capture protein used with both murine and human chimeras

recombinant human LTbR = recombinant human LTbR (human, UniProt P36941 31-227, limits assumed); experiment: biolayer interferometry (Octet), human LTbR
human LTBR-His = molecular target: T2, human LTBR-His (human, UniProt P36941 31-227, limits assumed); experiment: ELISA: hLTBR-Fc His Tag capture, 'hLIGHT Biotinylated' detection, streptavidin HRP
T2 construct: also called hLTBR-His

recombinant human CD47 = recombinant human CD47 (human, UniProt Q08722 part only, limits assumed); experiment: biolayer interferometry (Octet), 'hCD47-his Acro'; concentration not given
Chain of recombinant human CD47 (Q08722 19-139 limits assumed): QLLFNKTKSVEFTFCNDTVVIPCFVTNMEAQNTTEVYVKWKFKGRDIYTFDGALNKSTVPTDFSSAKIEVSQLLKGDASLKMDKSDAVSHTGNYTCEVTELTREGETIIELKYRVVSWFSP

Chain of recombinant human LTbR (P36941 31-227 limits assumed): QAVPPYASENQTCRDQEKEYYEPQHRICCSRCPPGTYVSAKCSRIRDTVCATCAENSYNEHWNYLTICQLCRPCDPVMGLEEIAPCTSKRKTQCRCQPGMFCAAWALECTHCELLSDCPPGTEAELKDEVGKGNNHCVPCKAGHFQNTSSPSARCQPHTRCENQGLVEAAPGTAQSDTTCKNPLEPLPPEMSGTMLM
Chain of human LTBR-His (P36941 31-227 limits assumed): as above
T1 sequence (Q61735 19-140): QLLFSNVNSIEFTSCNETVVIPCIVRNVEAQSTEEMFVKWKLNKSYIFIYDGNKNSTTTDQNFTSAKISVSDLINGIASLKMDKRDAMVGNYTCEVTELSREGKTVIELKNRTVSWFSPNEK

- EC50 (read off the curve) (CD47-His): ~4 nM
- binding result (recombinant human LTbR): binds
- binding result (human LTBR-His): binds
- binding result (recombinant human CD47): binds
B1: human CD172a(SIRPα)-Fc-LIGHT chimeric protein (Fc fusion)
chain: [sequence of about 350 residues omitted]SKYGPPCPPCPAPEFLGGPSVFLFPPKPKDQLMISRTPEVTCVVVDVSQEDPEVQFNWYVDGVEVHNAKTKPREEQFNSTYRVVSVLTVLHQDWLSGKEYKCKVSSKGLPSSIEKTISNATGQPREPQVYTLPPSQEEMTKNQVSLTCLVKGFYPSDIAVEWESNGQPENNYKTTPPVLDSDGSFFLYSRLTVDKSRWQEGNVFSCSVLHEALHNHYTQKSLSLSLGKIEGRMDLQLHWRLGEMVTRLPDGPAGSWEQLIQERRSHEVNPAAHLTGANSSLTGSGGPLLWETQLGLAFLRGLSYHDGALVVTKAGYYYIYSKVQLGGVGCPLGLASTITHGLYKRTPRYPEELELLVSQQSPCGRATSSSRVWWDSSFLGGVVHLEAGEKVVVRVLDERLVRLRDGTRSYFGAFMV
notes: also called hCD172a(SIRPα)-Fc-LIGHT; Sirp1a-Fc-LIGHT
